For this assay, the target named is T1, purified recombinant human mature GDF-8 (dimer) (human, UniProt O14793 267-375, biotinylated with EZ-link Sulfo-NHS-Biotin in the ActRIIB plate assays; 125I-labelled (chloramine T) in the L6 cell assays; sites not stated).
T1 construct: runs as a dimer on SDS-PAGE; also called myostatin; biotinylated GDF-8
T1 sequence: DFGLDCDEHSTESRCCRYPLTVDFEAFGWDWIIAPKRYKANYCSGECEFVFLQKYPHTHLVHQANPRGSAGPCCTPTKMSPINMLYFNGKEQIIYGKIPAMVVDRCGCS
Put plainly: ActRIIB binding assay (competition ELISA) with biotinylated GDF-8.

B1: Human GDF-8 propeptide-IgG1 wt Fc fusion protein (Fc fusion)
chain: not shown
notes: Made in COS-1 M6 cells, purified on Protein A; also called human GDF-8 propeptide-IgG1 Fc fusion protein
As for B1, the binding result is on record as “binds”.
